B1: GPR68, Q15743 (parent)
chain: MGNITADNSSMSCTIDHTIHQTLAPVVYVTVLVVGFPANCLSLYFGYLQIKARNELGVYLCNLTVADLFYICSLPFWLQYVLQHDNWSHGDLSCQVCGILLYENIYISVGFLCCISVDRYLAVAHPFRFHQFRTLKAAVGVSVVIWAKELLTSIYFLMHEEVIEDENQHRVCFEHYPIQAWQRAINYYRFLVGFLFPICLLLASYQGILRAVRRSHGTQKSRKDQIQRLVLSTVVIFLACFLPYHVLLLVRSVWEASCDFAKGVFNAYHFSLLLTSFNCVADPVLYCFVSETTHRDLARLRGACLAFLTCSRTGRAREAYPLGAPEASGKSGAQGEEPELLTKLHPAFQTPNSPGSGGFPTGRLA

In data set [1] the parent is B1. Description: cAMP reporter score (Enrich2 score, wild type = 0); higher = more signal; HEK293T, FACS bins.
The variants in data set [2] derive from B1. Description: surface expression score (Enrich2 score, wild type = 0); higher = more signal; HEK293T, FACS bins.

Scores whose standard error is large were omitted. The source holds two more conditions with little spread; they are left out. Read del as a deletion of the residues named and ins as an insertion between two positions. For some assays here: How much ogerin was present is not stated here.

With MGNITADNSSMSCTIDHTIHQTLAPVVYVTVLVVGFPANCLSLYFGYLQIKARNELGVYLCNLTVADLFYICSLPFWLQYVLQHDNWSHGDLSCQVCGILLYENIYISVGFLCCISVDRYLAVAHPFRFHQFRTLKAAVGVSVVIWAKELLTSIYFLMHEEVIEDENQHRVCFEHYPIQAWQRAINYYRFLVGTLFPICLLLASYQGILRAVRRSHGTQKSRKDQIQRLVLSTVVIFLACFLPYHVLLLVRSVWEASCDFAKGVFNAYHFSLLLTSFNCVADPVLYCFVSETTHRDLARLRGACLAFLTCSRTGRAREAYPLGAPEASGKSGAQGEEPELLTKLHPAFQTPNSPGSGGFPTGRLA [F194T], the cAMP reporter score in data set [1] (pH 5.5) is -0.686; in data set [1] (pH 6) it was -1.32; in data set [1] (pH 6, modulator: ogerin) it was -0.571; in data set [1] (pH 6.5, modulator: ogerin) it was 0.914. For the same variant, in data set [2], the surface expression score was -3.07.
The matching figures for MGNITADNSSMSCTIDHTIHQTLAPVVYVTVLVVGFPANCLSLYFGYLQIKARNELGVYLCNLTVADLFYICSLPFWLQYVLQHDNWSHGDLSCQVCGILLYENIYISVGFLCCISVDRYLAVAHPFRFHQFRTLKAAVGVSVVIWAKELLTSIYFLMHEEVIEDENQHRVCFEHYPIQAWQRAINYYRFLVGRLFPICLLLASYQGILRAVRRSHGTQKSRKDQIQRLVLSTVVIFLACFLPYHVLLLVRSVWEASCDFAKGVFNAYHFSLLLTSFNCVADPVLYCFVSETTHRDLARLRGACLAFLTCSRTGRAREAYPLGAPEASGKSGAQGEEPELLTKLHPAFQTPNSPGSGGFPTGRLA [F194R]: -2.43, -1.11, -2.6, -0.702 and -2.42.
On to MGNITADNSSMSCTIDHTIHQTLAPVVYVTVLVVGFPANCLSLYFGYLQIKARNELGVYLCNLTVADLFYICSLPFWLQYVLQHDNWSHGDLSCQVCGILLYENIYISVGFLCCISVDRYLAVAHPFRFHQFRTLKAAVGVSVVIWAKELLTSIYFLMHEEVIEDENQHRVCFEHYPIQAWQRAINYYRFLVGSLFPICLLLASYQGILRAVRRSHGTQKSRKDQIQRLVLSTVVIFLACFLPYHVLLLVRSVWEASCDFAKGVFNAYHFSLLLTSFNCVADPVLYCFVSETTHRDLARLRGACLAFLTCSRTGRAREAYPLGAPEASGKSGAQGEEPELLTKLHPAFQTPNSPGSGGFPTGRLA [F194S], for which the cAMP reporter score in data set [1] (pH 5.5) is -0.424; in data set [1] (pH 6, modulator: ogerin) it was -0.166; in data set [1] (pH 6.5, modulator: ogerin) it was -0.406. The surface expression score in data set [2] was -2.27.
Consider MGNITADNSSMSCTIDHTIHQTLAPVVYVTVLVVGFPANCLSLYFGYLQIKARNELGVYLCNLTVADLFYICSLPFWLQYVLQHDNWSHGDLSCQVCGILLYENIYISVGFLCCISVDRYLAVAHPFRFHQFRTLKAAVGVSVVIWAKELLTSIYFLMHEEVIEDENQHRVCFEHYPIQAWQRAINYYRFLVGQLFPICLLLASYQGILRAVRRSHGTQKSRKDQIQRLVLSTVVIFLACFLPYHVLLLVRSVWEASCDFAKGVFNAYHFSLLLTSFNCVADPVLYCFVSETTHRDLARLRGACLAFLTCSRTGRAREAYPLGAPEASGKSGAQGEEPELLTKLHPAFQTPNSPGSGGFPTGRLA [F194Q], for which the results for the cAMP reporter score in data set [1] (pH 5.5) and in data set [1] (pH 6) were -0.411 and -1.48, respectively. Further, the surface expression score in data set [2] is -1.59.
